Values marked as one replicate rest on one cluster of the flow cell; about a third of the high ones do not repeat.
Each sequence was assayed on ATP (assay: switch fluorescence ratio, 500 uM ATP over buffer (Cy3 cluster intensity, sum of 5 cycles each) (fold (ratio)); higher = stronger signal-on switching upon ATP binding; sequences stand for … in TCGTCGGCAGCGTCAGATGTGTATAAGAGACAGTTTTTTTTTTTTTTTTTTTTTTTTT…TC). Settings: aptamer strand: ATP DNA aptamer (quencher-CACCTGGGGGAGTATTGCGGAGGAAGG + anchor), 100 nM annealed; ATP concentration: 500 uM; one replicate.
In short: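 Clusters carrying Cy3-labelled switching strands on a modified Illumina MiSeq flow-cell were annealed to 100 nM quencher-labelled ATP aptamer and imaged in selection buffer. They were imaged again after 15 min with 500 uM ATP at 22 °C, over five buffer/ATP cycles with NaOH stripping and re-annealing in between. For each cluster, the fluorescence ratio is the summed Cy3 intensity of the target cycles divided by that of the buffer cycles, averaged per switch-domain sequence. Clusters outside 100-1000 RFU were left out.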
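Also: ATP exposure 15 min at 22 °C before imaging.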

| Sequence | switch fluorescence ratio |
| --- | --- |
| ATATATAGA | 0.952 |
| ATATATGTTA | 1.01 |
| ATATATTATG | 0.999 |
| ATATCACGTT | 1.03 |
| ATATCATACA | 1.01 |
| ATATCATTTA | 1.03 |
| ATATCCGTCC | 1.31 |
| ATATCGTGGG | 0.939 |
| ATATCTAACC | 1.01 |
| ATATCTCAAC | 1.01 |
| ATATCTGCTA | 1.01 |
| ATATCTTCTT | 1.05 |
| ATATGACAAT | 1.02 |
| ATATGACCCA | 0.978 |
| ATATGCAAGG | 1.01 |
| ATATGCAGCG | 0.989 |
| ATATGCCCAC | 1.05 |
| ATATGCCTGG | 1.02 |
| ATATGCTCTA | 1 |
| ATATGCTGCG | 1.02 |
| ATATGGAATG | 1.02 |
| ATATGGACTA | 1.01 |
| ATATGGCCTT | 1.02 |
| ATATGGCGG | 0.965 |
| ATATGGGGTA | 0.903 |

| Sequence | switch fluorescence ratio |
| --- | --- |
| ATATGTGCTG | 1.04 |
| ATATGTTTTG | 0.989 |
| ATATTAAATC | 0.991 |
| ATATTATAAG | 1.03 |
| ATATTATGC | 0.986 |
| ATATTCAGCT | 0.933 |
| ATATTCGTGA | 1.01 |
| ATATTCTCTC | 1.16 |
| ATATTGATAC | 1.02 |
| ATATTGGCGT | 0.965 |
| ATATTGGCTT | 1.02 |
| ATATTGTGCT | 0.96 |
| ATATTTTTAC | 1.08 |
| ATCAAAACAG | 1.04 |
| ATCAACTGTT | 0.969 |
| ATCAATACTT | 1.14 |
| ATCAATCTGA | 0.949 |
| ATCACCGGTT | 1 |
| ATCACGTGCC | 1.01 |
| ATCACTATCG | 0.977 |
| ATCACTCGCA | 1.08 |
| ATCAGATAAC | 0.947 |
| ATCAGCAAGG | 1.25 |
| ATCAGCATGG | 1.04 |
| ATCAGCATTG | 0.998 |

| Sequence | switch fluorescence ratio |
| --- | --- |
| ATCAGGGCAC | 1.04 |
| ATCATAAACA | 1.03 |
| ATCATAACGA | 1.03 |
| ATCATAACGG | 1.06 |
| ATCATAGTAA | 1.01 |
| ATCATATCCG | 0.926 |
| ATCATATGA | 1.01 |
| ATCATCATAA | 0.996 |
| ATCATCTCAT | 0.975 |
| ATCATGACTC | 1.07 |
| ATCATGGGAA | 1.06 |
| ATCATGTTAA | 0.981 |
| ATCATTAGAT | 1.02 |
| ATCATTGCAT | 1.01 |
| ATCCAGCACG | 1.06 |
| ATCCAGCATC | 1.71 |
| ATCCATGAC | 1.04 |
| ATCCATTAAG | 1.04 |
| ATCCATTTTA | 0.989 |
| ATCCCCCTTT | 1.03 |
| ATCCCCTATG | 1.12 |
| ATCCCTAGCG | 1.05 |
| ATCCCTCAGA | 1.02 |
| ATCCCTCGTC | 0.948 |
| ATCCCTTAAG | 0.978 |

| Sequence | switch fluorescence ratio |
| --- | --- |
| ATCCGACCAA | 4.3 |
| ATCCGAGATT | 1.09 |
| ATCCGCTCTG | 1.14 |
| ATCCGGCCAC | 1.13 |
| ATCCGGGAGA | 1.08 |
| ATCCGTAGGG | 1 |
| ATCCGTATGA | 1.04 |
| ATCCGTGCCA | 1 |
| ATCCTAGGTG | 1.17 |
| ATCCTGAGAC | 1.07 |
| ATCCTGTAGG | 0.992 |
| ATCCTTTTTG | 1.02 |
| ATCGACCGGG | 1.02 |
| ATCGACTCAT | 1.03 |
| ATCGACTGAA | 1.03 |
| ATCGAGTGGT | 0.993 |
| ATCGATAAAC | 1.01 |
| ATCGATCCC | 0.984 |
| ATCGATTCTG | 0.987 |
| ATCGCACGGG | 1.14 |
| ATCGCCTAAC | 1.15 |
| ATCGCGAAGC | 0.968 |
| ATCGCGCGAA | 0.939 |
| ATCGCTATAT | 1.82 |
| ATCGCTCACG | 1.06 |
